PubChem BioAssay AID743255 (National Center for Advancing Translational Sciences (NCATS), 2014)
Out of some 390,000 compounds screened, about 910 (0.23%) were called active. Inconclusive results (about 5%) are left out. The call rests on the fitted dose curve; in most records, active means well fitted inhibition curve with a large enough effect; inconclusive means small, poorly fitted or top-dose-only effect; inactive means no such curve, though single readings can be large or run the other way. Only a part is listed here, and it is no random draw.

Each compound was assayed against Ubiquitin carboxyl-terminal hydrolase 1 (Homo sapiens) (UniProt O94782) (assay: Inhibitors of USP1/UAF1: Primary Screen). Details: recombinant USP1/UAF1, Ub-Rhodamine cleavage fluorescence; activity change, negative = inhibition: at 57.1 µM (top of the series).
How it was run: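 Step one: compound is pinned into 1nM USP1/UAF1 in HEPES pH 7.8 buffer with TCEP. Step two: 15 min room-temperature incubation. Step three: Ub-Rho (150nM final) starts cleavage, tracked by fluorescence over six one-minute reads.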
Further: nearly all actives have a fitted effect of over 60% in size.
On the % scale 0 is the no-effect control and ±100 the full control effect; potency means the concentration at half of the fitted maximal effect.

Sequence of UniProt O94782 (O94782 whole entry, looked up): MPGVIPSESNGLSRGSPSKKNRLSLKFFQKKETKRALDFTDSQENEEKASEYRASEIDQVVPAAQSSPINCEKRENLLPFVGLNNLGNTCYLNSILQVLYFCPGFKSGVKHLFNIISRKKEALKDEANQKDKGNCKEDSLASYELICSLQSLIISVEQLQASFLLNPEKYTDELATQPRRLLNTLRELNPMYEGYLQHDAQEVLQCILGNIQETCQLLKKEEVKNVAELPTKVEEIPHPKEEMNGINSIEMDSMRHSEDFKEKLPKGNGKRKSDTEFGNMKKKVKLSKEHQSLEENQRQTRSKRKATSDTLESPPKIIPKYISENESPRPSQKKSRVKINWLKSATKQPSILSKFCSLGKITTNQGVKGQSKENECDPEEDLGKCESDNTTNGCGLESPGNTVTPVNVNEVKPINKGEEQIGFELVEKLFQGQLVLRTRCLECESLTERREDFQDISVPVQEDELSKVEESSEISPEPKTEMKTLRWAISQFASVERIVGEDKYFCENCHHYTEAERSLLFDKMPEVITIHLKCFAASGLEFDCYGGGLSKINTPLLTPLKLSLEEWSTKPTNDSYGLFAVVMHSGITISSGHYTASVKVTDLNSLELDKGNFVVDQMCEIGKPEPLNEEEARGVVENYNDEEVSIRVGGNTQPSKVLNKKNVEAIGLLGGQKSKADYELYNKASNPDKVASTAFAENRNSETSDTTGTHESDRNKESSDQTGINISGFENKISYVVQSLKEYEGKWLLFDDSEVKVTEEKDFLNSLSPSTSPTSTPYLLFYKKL

Activity change, negative = inhibition, inactive:
Cn1ncc2c(N3CCN(c4cccc(Cl)c4)CC3)ncnc21 28.4%, COc1cccc(N2CCN(S(=O)(=O)c3ccc(-n4cnnn4)cc3)CC2)c1 -9.81%, NC(=O)CSc1oc(-c2ccco2)nc1S(=O)(=O)c1ccc(Cl)cc1 -23.2%, CCn1c(/C=C/c2ccc([N+](=O)[O-])o2)nc2ccccc2c1=O 119%, O[C@@H]1CN(Cc2cccs2)[C@@H](c2ccccc2)C[C@H]1n1cc(-c2ccc(F)cc2)nn1 -10.8%, COCCCn1c(=N)c(C(=O)NC2CCCCC2)cc2c(=O)n3ccccc3nc21 -6.16%, O=C1NC[C@H](c2ccccc2)OC(=O)[C@H](Cc2ccc(F)cc2)C/C=C\C[C@H]1CC(=O)N(CCO)Cc1ccccc1 -27.7%, O=C(N/C(=C/c1ccc(Br)cc1)C(=O)N1CCCC1)c1ccccc1F -4.52%, Cc1ccc2oc(=O)c(-c3nc(-c4cccs4)no3)cc2c1 4.82%, COC(C[C@@H]1O[C@@H]1[C@H](O)COCc1ccccc1)OC -19.9%, CC(Cc1cccc(C(F)(F)F)c1)NCCOC(=O)c1ccccc1 (stereo not drawn) -24.2%, CCN(CC)c1ccc(/C=c2\sc3nnc(-c4ccccc4Cl)n3c2=O)cc1 54.5%, CCOC(=O)[C@@H]1[C@H]2COc3ccc(Br)cc3[C@@H]2N2C(=O)N(c3ccc(C(F)(F)F)cc3)C(=O)[C@]12C -16%, CCC(C)Sc1ccc([C@@H]2[C@@H]3C(=O)N(CC)C(=O)[C@@H]3[C@]3(C(=O)OC)CCCCN23)cc1 (stereo partly drawn) 2.04%, OC(COc1ccc(CN2CCCCO2)cc1)CN1CCCCC1 (stereo not drawn) 1.08%, N#CC(C(=O)OC1CCCCC1)c1nc2ccccc2nc1N1CCOCC1 (stereo not drawn) 122%, FC(F)(F)c1ccccc1C1=CC(c2ccccc2)n2ncnc2N1 (stereo not drawn) 25.9%, O=C1CCC/C(=N/NC(=O)c2sc3ccccc3c2Cl)C1 35.1%, COCCCNC(=O)c1cc2c(-c3cccc(OC)c3)nn(C)c2s1 -18.3%, CCC1CN(C(=O)N2CCC(C(=O)NCc3ccccc3C)CC2)c2ccccc2O1 (stereo not drawn) -32.1%, CCN1C(=O)/C(=C/C=C2\N(CC)c3cc(S(=O)(=O)N(C)C)ccc3N2c2ccccc2)SC1=S 41%, CNC(=O)c1c[nH]c2ccc(S(=O)(=O)Nc3cccc(Cl)c3C)cc2c1=O 32.3%, Cc1ccc(NC(=O)c2ccc(NCCc3ccccc3)c([N+](=O)[O-])c2)cc1F 33.7%, CCCCCCCCc1nnc(NC(=O)c2ccco2)s1 29.3%, OCC[C@H]1C[C@H](O)[C@@H](O)[C@]2(CCCc3ccccc3O2)O1 -9.44%, O=C1Cc2ccccc2Sc2ccc(O)cc21 106%, COC(=O)c1ccc(Cn2nnc3c(=O)[nH]c(C4CCCN(S(=O)(=O)c5cccc(Cl)c5)C4)nc32)cc1 (stereo not drawn) -6.59%, COc1ccc(NC(=O)Nc2ccc3c(c2)C(=O)N([C@@H](C)CO)C[C@@H](C)[C@@H](CN(C)S(=O)(=O)c2cccs2)O3)cc1 -20.8%, C[C@@H]1COC(=O)[C@H](CC(=O)OC(C)(C)C)C/C=C\C[C@H](CC(=O)N(CCO)Cc2ccccc2)C(=O)N1 -5.06%, CCN1C(=O)/C(=C2/Sc3ccccc3N2CC)S/C1=N\c1ncn[nH]1 142%, CC(C)n1c(O)c(N=Nc2ccc(Cl)nn2)c2ccccc21 49.3%, Cc1cccc(NC(=O)c2cc(S(=O)(=O)N3CCC4(CC3)OCCO4)ccc2F)c1 1.31%, C[C@]12C(=O)N(c3cccc(F)c3)C(=O)N1[C@H]1c3ccccc3OC[C@@H]1[C@H]2c1ccccc1 -28.4%, CC(=O)n1cc([C@H]2C=C(C(=O)NCc3ccccc3)O[C@@H](OCc3ccc(CO)cc3)C2)c2ccccc21 -24.8%, COc1cccc(CNC(=O)CCNS(=O)(=O)c2ccc3c(c2)oc(=O)n3C)c1 9.54%, CCOC(=O)c1[nH]cnc1C(=O)Nc1ccc(F)cc1 -7.17%, O=C(O)CCCN1C(=O)/C(=C/c2ccc(-c3nc4ccccc4s3)o2)SC1=S -21.8%, CCC1CN(C(=O)N2CCC(C(=O)O)CC2)c2cc(C)ccc2O1 (stereo not drawn) 28.2%, CCOC(=O)C1CCCN(C(=O)Cn2ncc3c([nH]c4ccc(C)cc43)c2=O)C1 (stereo not drawn) -2.69%, COC(C[C@H]1O[C@@H]1C(=O)[C@H](C)OCc1ccccc1)OC 3.95%, C[C@@H]1CN([C@@H](C)CO)C(=O)CCCn2nncc2CO[C@H]1CN(C)C(=O)NC1CCCCC1 -20.8%, COc1ccc([C@H]2C[C@@H](O)[C@H](n3cc(COC(=O)c4ccccc4)nn3)CN2C(=O)C2CCCCC2)cc1 -24.9%, CN1C(=O)/C(=C\c2cc(N=Nc3ccccc3)ccc2O)SC1=S -9.27%, CC(C)(C)OC(=O)C[C@H]1C/C=C\C[C@H](CC(=O)N[C@H](CO)Cc2ccccc2)C(=O)N2CCC[C@@H]2COC1=O -17.9%, Cc1ccc(NC(=O)C2CC(=O)N(c3ccc(OC(C)C)cc3)C2)cc1 (stereo not drawn) 27.2%, COC(=O)N1C(=O)[C@@](c2ccccc2)(C2CCCCC2)N1C(=O)OC -9.12%, CCc1ccccc1N(C)C(=O)c1ccc2c(=O)n3c(nc2c1)CCCCC3 38.3%, CC(C)(C)OC(=O)C[C@H]1C/C=C\C[C@@H](CC(=O)N[C@@H](CO)Cc2ccccc2)C(=O)NC[C@@H](c2ccccc2)OC1=O -22.3%, COc1cc(N=c2ssnc2Cl)c(OC)cc1Cl -11.6%, O=C(Nc1cc(F)cc(F)c1)c1ccc(NCCc2ccccc2)c([N+](=O)[O-])c1 41.5%, CCOC(=O)[C@@H]1[C@H]2COc3ccc(Br)cc3[C@H]2N2C(=O)N(c3ccc(C)cc3)C(=O)[C@@]12C -25.8%, CCOC(=O)C1CCN(C(=O)Cn2ncc3c([nH]c4ccccc43)c2=O)CC1 -14.2%

Potency, active:
CCCc1nc2c(=O)n(C)c(=O)nc-2n(C)n1 0.1 µM, COc1ccc(NC2=C(NCCO)C(=O)c3ccccc3C2=O)cc1 25.1 µM, C=CCn1c(NC(=O)c2ccccc2Cl)c(C#N)c2nc3ccccc3nc21 15.8 µM, O=C(CSc1nc2cc(Cl)ccc2s1)c1cc2ccccc2o1 28.2 µM, CCN(CC)c1ccc(/C=C(/C#N)C(=O)NCc2ccccc2)o1 31.6 µM, O=C1c2ccccc2-c2onc3ccc(N4CCCC4)c1c23 14.1 µM
